Results: PubChem BioAssay AID1476 (National Center for Advancing Translational Sciences (NCATS), 2009)
The whole screen tested about 200,000 compounds, of which about 4,500 (2.2%) were called active. Inconclusive means that the source gave no clear call. Such entries were picked first, then a sample of the others. The call rests on the fitted dose curve; in most records, active means well fitted inhibition curve with a large enough effect; inconclusive means small, poorly fitted or top-dose-only effect, or effect the other way; inactive means flat fitted curve, though single readings scatter. Potencies of inconclusive entries are doubtful fits and often do not repeat.

biological target: Cruzipain (Trypanosoma cruzi) (UniProt P25779); assay: qHTS Assay for Promiscuous and Specific Inhibitors of Cruzain (without detergent); details: purified cruzain, Z-FR-AMC fluorescence, no detergent; further: nearly all actives have a fitted effect of over 40% in size;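 on max response, negative = inhibition: plate controls were enzyme without inhibitor for no effect and buffer without enzyme for full effect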
UniProt P25779, sequence (P25779 whole entry, looked up): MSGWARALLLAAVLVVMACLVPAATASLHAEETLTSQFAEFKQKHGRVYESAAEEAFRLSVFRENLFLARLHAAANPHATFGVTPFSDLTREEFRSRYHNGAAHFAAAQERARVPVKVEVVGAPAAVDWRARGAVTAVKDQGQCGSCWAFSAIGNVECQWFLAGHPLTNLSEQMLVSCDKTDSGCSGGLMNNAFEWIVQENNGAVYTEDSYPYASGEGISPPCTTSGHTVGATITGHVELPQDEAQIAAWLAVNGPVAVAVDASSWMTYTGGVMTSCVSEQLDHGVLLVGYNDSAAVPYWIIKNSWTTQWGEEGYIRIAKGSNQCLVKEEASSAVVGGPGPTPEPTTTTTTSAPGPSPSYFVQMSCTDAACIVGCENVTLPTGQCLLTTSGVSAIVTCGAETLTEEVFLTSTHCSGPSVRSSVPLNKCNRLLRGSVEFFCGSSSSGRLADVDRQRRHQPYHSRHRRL
Procedure, shortened: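 Detergent-free condition (0.00005% Triton X-100) in acetate buffer pH 5.5 with DTT. 1.5 nM enzyme and compound were pre-mixed 15 min, then 2 uM Z-FR-AMC substrate added; reaction progress from fluorescence change between first and third reads (60 s).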
Potency means the concentration at half of the fitted maximal effect; tags describe the fitted curve by direction and shape.

SMILES | Potency | max response, negative = inhibition
COc1ccc(C(=O)CC(Nc2ccc([N+](=O)[O-])cc2)c2ccc(OC)cc2)cc1 (configuration not stated) | inconclusive: 39.8 µM [inhibitor, single point] | 
CN[C@@H]1[C@H](O[C@H]2[C@H](O[C@H]3[C@H](O)[C@@H](O)[C@H](N=C(N)N)[C@@H](O)[C@@H]3N=C(N)N)O[C@@H](C)[C@]2(O)C=O)O[C@@H](CO)[C@H](O)[C@H]1O |  | inactive: 6.14%
O=C(c1cccc(Br)c1)c1cn(-c2ccccc2)nc1C(=O)c1ccccc1 | inconclusive: 31.6 µM [inhibitor, single point] | 
CCc1cccc(-n2c(=O)c3cccnc3n2CC(=O)NCc2ccccc2Cl)c1 |  | inactive: 3.71%
Cc1oc(=O)c(NC(=O)c2ccccc2)cc1C(=O)c1ccccc1 | active: 0.794 µM | 
CC(C)C(=O)Nc1ccc(-c2csc(-c3ccccc3)n2)cc1 | inconclusive: 39.8 µM [inhibitor, single point] | 
COc1cc(C(c2sc3nc(C)nn3c2O)N2CCc3ccccc3C2)cc(OC)c1OC (configuration not stated) | inconclusive: 31.6 µM [activator, single point] | 
COc1ccc(-n2c(Cc3cccn3C)nnc2SCC(=O)NCCc2ccccc2)cc1 | inconclusive: 25.1 µM [activator, single point] | 
CC(=O)NCC(=O)NC(Cc1ccccc1)C(N)=O (configuration not stated) |  | inactive: 1.45%
CCn1c2ccccc2c2nnc(NN)nc21 | inconclusive: 31.6 µM [inhibitor, single point] | 
O=C(COc1ccc(-c2ccccc2)cc1)N/N=C/c1ccccc1Br | inconclusive: 39.8 µM [inhibitor, single point] | 
COc1ccc(CCNC(=O)CS(=O)Cc2nc(-c3ccc(C)cc3)oc2C)cc1OC (configuration not stated) | inconclusive: 39.8 µM [activator, single point] | 
CC(C)(C)C1CCc2c(sc(N)c2C(N)=O)C1 (configuration not stated) | active: 25.1 µM | 
Cc1ccc(-n2nc3ccc(NC(=O)/C=C/c4ccco4)cc3n2)cc1C | active: 12.6 µM | 
Cn1c(N2CCCCC2)nc2c1c(=O)n(Cc1cccc(Br)c1)c(=O)n2C | inconclusive: 31.6 µM [activator, single point] | 
COc1ccc(S(=O)(=O)n2nc(OC(=O)c3cccs3)cc2N)cc1 | active: 12.6 µM | 
COCCn1c(=O)c(CCc2ccccc2)nc2cnc(N(C)C)nc21 | inconclusive: 39.8 µM [activator, single point] | 
Cc1cc(C(=O)Cn2nc(C(=O)O)c3ccccc3c2=O)c(C)n1-c1ccccc1 | active: 25.1 µM | 
COc1ccc(N(C(=O)c2cccc([N+](=O)[O-])c2)S(=O)(=O)c2ccc3c(c2)n(C)c(=O)n3C)cc1 | inconclusive: 31.6 µM [activator, single point] | 
O=C(CNC(=O)/C(=C/c1ccccc1)NC(=O)c1ccc(Br)cc1)OCc1ccccc1 |  | inactive: -20.4%
COc1cccc2c1[C@@H]1CN(CCCCn3c(=O)[nH]c4c(sc5ncc(-c6ccccc6)nc54)c3=O)C[C@@H]1CO2 | inconclusive: 39.8 µM [inhibitor, single point] | 

SMILES | Potency | max response, negative = inhibition
COc1cc(Nc2nc(SCc3cccc(Cl)c3)nc3ccccc23)cc(OC)c1 | active: 20 µM | 
Nc1nc(N)c2nn(-c3ccc(C(=O)O)cc3)nc2n1 |  | inactive: 3.96%
Cc1cccc(/C=N/Nc2cc(N3CCOCC3)nc(N3CCOCC3)n2)c1 | inconclusive: 39.8 µM [activator, single point] | 
COc1ccc(CNCc2ccc3c(c2)n(C)c(=O)n3C)cc1 |  | inactive: 11.4%
O=C(/C=C/c1ccc2c(c1)OCO2)Nc1nc(-c2ccc(F)cc2)cs1 | inconclusive: 39.8 µM [inhibitor, single point] | 
Cc1ccc(OCC(=O)NC(=S)Nc2ccc3c4c(cccc24)CC3)cc1 | inconclusive: 39.8 µM [inhibitor, single point] | 
CCOc1ccc(C2C(C(=O)Nc3ccc(F)cc3)=C(C)Nc3nc(CCCO)nn32)cc1 (configuration not stated) | inconclusive: 31.6 µM [activator, single point] | 
O=C(CN(Cc1ccccc1)S(=O)(=O)c1ccc2c(c1)OCCO2)Nc1ccc2c(c1)OCCO2 | active: 20 µM | 
O=C(NCc1ccccc1F)C1CCN(Cc2cc3ccccc3n2Cc2cccc(Cl)c2)CC1 | inconclusive: 39.8 µM [inhibitor, single point] | 
COc1cc(C2c3c(oc4ccccc4c3=O)C(=O)N2c2nc(C)c(C)s2)ccc1O (configuration not stated) |  | inactive: -4.14%
Cc1nc2nc(NC(=O)c3ccc(F)cc3)[nH]n2c(=O)c1Cc1ccccc1 | inconclusive: 39.8 µM [inhibitor, single point] | 
Cc1[nH]n(-c2ccc([N+](=O)[O-])cc2)c(=O)c1C=NCCc1c(C)[nH]c2ccccc12 | inconclusive: 31.6 µM [inhibitor, single point] | 
Cc1ccc(Cl)cc1NC(=O)C(NS(=O)(=O)c1cccc2nsnc12)c1ccccc1 (configuration not stated) | inconclusive: 39.8 µM [inhibitor, single point] | 
Cc1cccc(NC(=O)CN2c3ccccc3S(=O)(=O)c3ccccc32)c1C |  | inactive: -17.9%
CC(C)OC(=O)c1c(NC(=O)CCC(=O)O)sc2c1CCCCC2 | inconclusive: 39.8 µM [activator, single point] | 
c1ccc(-c2oc3ncnc(NCCN4CCOCC4)c3c2-c2ccccc2)cc1 | inconclusive: 20 µM [activator, single point] | 
Cc1ccc(Oc2ncccc2/C=N/OCc2ccc(Cl)cc2Cl)cc1 | inconclusive: 25.1 µM [inhibitor, single point] | 
O=C(CCCOc1ccc(Cl)cc1Cl)N1CCc2ccccc2C1 | inconclusive: 39.8 µM [activator, single point] | 
Cc1ccc(Cc2c(C)nn(-c3nc(C)c(C(=O)N4CCCCC4C)s3)c2C)cc1 (configuration not stated) | inconclusive: 3.16 µM [inhibitor, single point] | 
O=C(Nc1ccc2c(c1)nc1n2CCN(C2CCCCC2)C1)NC1CCCCC1 | inconclusive: 25.1 µM [inhibitor, single point] | 
C/C(=N\NC(=O)c1ccc(O)cc1)c1ccc2c(c1)Nc1ccccc1S2 | inconclusive: 39.8 µM [activator, single point] | 

SMILES | Potency | max response, negative = inhibition
CC(C)CCn1c(CN(C)Cc2ccccc2)nc2c1c(=O)n(C)c(=O)n2C | inconclusive: 31.6 µM [activator, single point] | 
CC(=O)c1c(N2CCN(c3ccc(F)cc3)CC2)nc(=S)n(Cc2ccccc2)c1C | inconclusive: 39.8 µM [inhibitor, single point] | 
CCc1c2c(nc3c(C(C)C)cccc13)-c1cccc(=O)n1C2 | inconclusive: 31.6 µM [activator, single point] | 
O=C(OC(c1ccccc1)c1nccc2ccccc12)c1cc([N+](=O)[O-])cc([N+](=O)[O-])c1 (configuration not stated) | inconclusive: 39.8 µM [inhibitor, single point] | 
CCOc1ccc(-c2nc3c(C#N)c[nH]n3c2NC2CCCCC2)cc1 |  | inactive: 21.7%
Cc1cc2cc(C)c3nnc(SCC(=O)Nc4ccc(S(=O)(=O)N5CCCCC5)cc4)n3c2cc1C | inconclusive: 3.16 µM [activator, single point] | 
COCCOc1ccc(C(F)(F)F)cc1Nc1nc2ccccc2o1 | inconclusive: 39.8 µM [activator, single point] | 
O=C(CC1Oc2ccc(Cl)cc2NC1=O)NC1CCCCCC1 (configuration not stated) | inconclusive: 39.8 µM [inhibitor, single point] | 
COC(=O)c1ccc(COc2ccccc2/C=C(\C#N)C(=O)Nc2c(C)cccc2C)cc1 | inconclusive: 20 µM [inhibitor, partial curve, poor fit] | 
CCc1ccc(C2CC(=O)c3c([nH]c(C(=O)OC4CCC(C)CC4)c3C)C2)cc1 (configuration not stated) |  | inactive: -12%
CCN(CC)S(=O)(=O)c1ccc(NC(=O)c2cc(-c3ccccc3)nc3ccccc23)cc1 | inconclusive: 39.8 µM [inhibitor, single point] | 
COc1cccc(-n2c(SCC(=O)N3CCc4ccccc43)nc3c([nH]c4ccccc43)c2=O)c1 | inconclusive: 20 µM [activator, single point] | 
O=C(COC(=O)c1ccc(-c2ccc([N+](=O)[O-])cc2)o1)NC(=O)NC1CCCCC1 | inconclusive: 20 µM [inhibitor, single point] | 
CC(C)c1nc2oc3c(NCC4CCCO4)ncnc3c2c2c1COC(C)(C)C2 (configuration not stated) | inconclusive: 31.6 µM [activator, single point] | 
COCCNc1ccc(-c2nc(-c3ccncc3)no2)cc1[N+](=O)[O-] |  | inactive: 18.4%
CCCCn1c(O)c(/C=C2\C=NN=C2c2ccccc2)sc1=S | inconclusive: 39.8 µM [inhibitor, single point] | 
COC(=O)[C@@]1(Cc2ccc(OC)cc2)[C@H]2c3cc(C(=O)N4CCCC4)n(Cc4c(CO)[nH]cc(C)c4=O)c3C[C@H]2CN1C(=O)c1ccccc1 | inconclusive: 39.8 µM [activator, single point] | 
O=C(/C=C/c1ccccc1)c1ccc(O[C@H]2OC(CO)C(O)C(O)C2O)cc1O (some centres not stated) | inconclusive: 25.1 µM [activator, single point] | 
CCSc1nc2c(cnn2-c2ccc(C)cc2)c(=O)[nH]1 | inconclusive: 39.8 µM [inhibitor, single point] | 
Cc1cccc(C(=O)N2CCC(c3nc(-c4ccc(S(=O)(=O)N5CCOCC5)cc4)no3)CC2)c1 | inconclusive: 25.1 µM [activator, single point] | 
